# Results reported in PubChem BioAssay AID686978 (National Center for Advancing Translational Sciences (NCATS), 2013).
# “And” between values parts separate entries of the source, which are not always exact repeats. Equal entries are not always repeated. Screen size: about 420,000 compounds; about 64,000 (15%) were called active. Inconclusive means that the source gave no clear call. Such entries were picked first, then a sample of the others. The call rests on the fitted dose curve; in most records, active means well fitted inhibition curve with a large enough effect; inconclusive means small, poorly fitted or top-dose-only effect; inactive means flat fitted curve, though single readings scatter. Potencies of inconclusive entries are left out as doubtful fits.
# Experiment: qHTS for Inhibitors of human tyrosyl-DNA phosphodiesterase 1 (TDP1): qHTS in cells in absence of CPT; further: nearly all actives have a fitted effect of over 55% in size
# Details: DT40 Tdp1-/- hTDP1 cells, no CPT, ATP luminescence, 48 h; series mostly up to 46.2 µM
# Method in brief: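 Readout: luminescence from CellTiter-Glo after 30 min in the dark at RT. Cells: DT40 Tdp1-/- with stable hTDP1, 400/well. Exposure: compounds alone, ≥48 hr, 37 °C.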
# Potency means the concentration at half of the fitted maximal effect; tags describe the fitted curve by direction and shape.
row,SMILES,Potency
1,CCOC(=O)C1CCN(C(=O)c2nn(-c3ccc(OC)cc3)c(=O)c3c2c2ccccc2n3C)CC1,"inconclusive [inhibitor, single point]"
2,Cc1nc(-c2ccc(Cl)cc2)sc1C1(C)CC(c2ccc(C#N)cc2)=NO1 (stereo not given),"inconclusive [inhibitor, partial curve]"
3,CC1CN(C(=O)c2cc3c(=O)n4ccccc4nc3n2C)CC(C)O1 (stereo not given),inactive
4,CCOc1ccccc1N(CC(=O)Nc1ccc(OC)c(OC)c1)S(=O)(=O)c1ccccc1,"inconclusive [inhibitor, partial curve]"
5,COc1ccc(N2CCN(C(=O)Nc3ccc(S(=O)(=O)N(C)C)cc3)CC2)cc1,"inconclusive [inhibitor, partial curve]"
6,Cc1ccc(-c2n[nH]c(=O)c3ccccc23)cc1S(=O)(=O)NCC1CCCO1 (stereo not given),"inconclusive [inhibitor, single point]"
7,O=C(CSc1nnc(COc2cccc3cccnc23)o1)c1ccc(F)cc1,active: 4.11 µM
8,Cc1nn(C)c2c1c(C(F)(F)F)cc(=O)n2CC(=O)N1CCC(C)CC1,"inconclusive [inhibitor, single point]"
9,O=C(CCS(=O)(=O)CCN1CCOCC1)NCNC(=O)CCS(=O)(=O)CCN1CCOCC1,inactive
10,COc1ccc(S(=O)(=O)NC(=O)C2(C)CCN2C(=O)CC2CCCCC2)cc1OC (stereo not given),inactive
11,O=C(NC1=NCCS1)c1cc(-c2cccnc2)nc2ccccc12,active: 20.6 µM
12,COc1ccc(S(=O)(=O)N2CCN(C)CC2)cc1NC(=O)c1ccccc1F,"inconclusive [inhibitor, full curve, poor fit]"
13,COc1ccc(/C(C)=N/NC(=O)CNC(=O)COc2ccccc2)c(OC)c1,inactive
14,C=CCn1c(=S)[nH]c2nc3c(cc2c1=O)CCCC3,"inconclusive [inhibitor, partial curve]"
15,CC1CCN(S(=O)(=O)c2cc(C(=O)N3CCN(c4ccccc4F)CC3)n(C)c2)CC1,"inconclusive [inhibitor, single point]"
16,CCN1CCCc2cc(CN(CCN3CCOCC3)C(=S)Nc3ccc(OC)cc3)ccc21,inactive
17,COC(=O)c1c(NC(=O)C(=O)N2CCCC2)sc2c1CC(C)(C)OC2,inactive
18,COCCN1C(=O)N[C@@H](CCc2ccccc2)[C@H](C(C)=O)[C@H]1C,inactive
19,Cc1ccn2cc(-c3cccc(NC(=O)c4cccs4)c3)nc2c1,active: 20.6 µM
20,CC(C)c1ccc(CN(C(=O)C2COc3ccccc3O2)C2CCS(=O)(=O)C2)cc1 (stereo not given),"inconclusive [inhibitor, partial curve]"
21,O=[N+]([O-])c1cc([N+](=O)[O-])c(Oc2ccc(Cl)c3cccnc23)cc1NN1CCCCC1,"inconclusive [inhibitor, single point]"
22,COc1cccc(NC(=O)Cc2cccs2)c1,inactive
23,CCN1C(=O)c2cccc3c(S(=O)(=O)Nc4ccc(OC)cc4OC)ccc1c23,"inconclusive [inhibitor, partial curve]"
24,CC(C)(C)c1ccc(CC(=O)N2CCC2(C)C(=O)Nc2cnc3ccccc3c2)cc1 (stereo not given),active: 11.6 µM

row,SMILES,Potency
1,COc1ccc(CN2CCN(C(=O)c3cc(-c4cccnc4)nc4ccc(Cl)cc34)CC2)c(OC)c1OC,active: 20.6 µM
2,CN(C)c1ccc(C2C=Cc3ccccc32)c2ccccc12 (stereo not given),"inconclusive [inhibitor, partial curve, poor fit]"
3,OCCNc1nc(-c2ccccc2)c2cc(Br)ccc2n1,"inconclusive [inhibitor, single point]"
4,COc1ccc(-c2nnc(SCc3cc(C)cc(C)c3)o2)cc1,"inconclusive [inhibitor, single point]"
5,COc1cc(CN2C[C@@H](CO)O[C@@H](n3cnc4c(NC(C)C)ncnc43)C2)cc(OC)c1OC,inactive
6,CCC1CN(C(=O)C2CCN(S(=O)(=O)c3c(C)noc3/C=C/c3ccccc3F)CC2)c2cc(C)ccc2O1 (stereo not given),"inconclusive [inhibitor, single point]"
7,CCOC(=O)[C@H]1[C@H]2COc3ccc(OC)cc3[C@@H]2N2C(=O)CN(Cc3ccccc3)C(=O)[C@@]12C,"inconclusive [inhibitor, single point]"
8,CCOc1ccc(N(C(C)C(=O)NCc2ccco2)S(C)(=O)=O)cc1 (stereo not given),inactive
9,Cc1cc(NC(=O)CSc2nc3ccccc3[nH]2)n(-c2ccccc2)n1,"inconclusive [inhibitor, partial curve]"
10,CC(C)CC(=O)Nc1ccc(C(=O)Cn2nc(C(=O)O)c3ccccc3c2=O)cc1,inactive
11,COC(=O)c1[nH]c2ccccc2c1NC(=O)CN1CC(C)OC(C)C1 (stereo not given),"inconclusive [inhibitor, single point]"
12,COc1ccc(CNC(=O)C(C)n2c(=O)cc(C)c3c(C)nn(-c4ccccc4)c32)cc1 (stereo not given),inactive
13,COc1ccc(NC(=O)c2oc3ccccc3c2NC(=O)Cc2cccs2)c(OC)c1,"inconclusive [inhibitor, single point]"
14,CCOC(=O)N1CCN(C(=O)COc2cccc3c2CCN(CC)C3=O)CC1,inactive
15,COc1cccc(NC(=O)CN(C)CC(=O)c2c(C)[nH]c3ccccc23)c1,"inconclusive [inhibitor, partial curve]"
16,Cc1ccccc1-c1nc(Cc2ccccc2)no1,"inconclusive [inhibitor, single point]"
17,CCc1cccc(CC)c1NC(=O)COC(=O)CC1c2ccccc2CCN1S(=O)(=O)c1ccccc1 (stereo not given),"inconclusive [inhibitor, single point]"
18,O=C(NCCCCc1ccccc1)C1CC(c2ccccc2[N+](=O)[O-])=NO1 (stereo not given),"inconclusive [inhibitor, single point]"
19,CCN1CCN(c2cc(C)c3cc(NC(=O)c4ccc(OC)c(OC)c4)ccc3n2)CC1,active: 16.4 µM
20,CCOc1ccc(-c2nnc(-c3ccncc3)o2)cc1OCC,"inconclusive [inhibitor, single point]"
21,CSCCC(NC(=O)c1ccccc1Cl)C(=O)Nc1ccc(C)c(S(=O)(=O)N2CCOCC2)c1 (stereo not given),"inconclusive [inhibitor, single point]"
22,O=C(CSc1nnc(-c2ccco2)n1Cc1ccccc1)NC(=O)NCc1ccccc1,"inconclusive [inhibitor, partial curve]"
23,CCCCCN1C=CC=C/C1=C\C=C(C#N)C#N,"inconclusive [inhibitor, single point]"
24,Cc1nc2c(c(C)nn2-c2ccccc2)c(C)c1CCC(=O)NCc1ccccc1,"inconclusive [inhibitor, single point]"

row,SMILES,Potency
1,CC(=O)Nc1ccc(NC(=O)CSc2nnc(-c3ccccc3)n2Cc2ccc3c(c2)OCO3)cc1,"inconclusive [inhibitor, partial curve]"
2,CCCCn1c(=NC(=O)c2ccco2)c(C(=O)OCC)cc2c(=O)n3cccc(C)c3nc21,active: 13 µM
3,Cn1c(=O)c2c(nc(N3CCCC3)n2CC(O)CO)n(C)c1=O (stereo not given),inactive
4,CCc1cccc(NC(=O)C2CCN(S(=O)(=O)c3cccc(-c4noc(C)n4)c3)CC2)c1,active: 20.6 µM
5,C=CCNC(=O)C1CCC(=O)N1S(=O)(=O)c1ccc(C)cc1 (stereo not given),inactive
6,CC(=O)c1cccc(NC(=O)c2nc(-c3ccccc3)n(-c3ccccc3C)n2)c1,active: 20.6 µM
7,COc1ccc(C)cc1Nc1nc(N)c2cc(OC)c(OC)cc2n1,active: 4.11 µM and active: 23.1 µM
8,C/C=C/COC(=O)C1=C(C)NC(=O)NC1c1ccc2c(c1)OCO2 (stereo not given),inactive
9,CCOc1cc(C(=O)Nc2cc(F)ccc2C)ccc1OCC(=O)N1CCOCC1,inactive
10,N#Cc1ccc(-c2ccc(OCC(=O)NN=Cc3ccncc3)cc2)cc1,"inconclusive [inhibitor, single point]"
11,COc1ccc(C2c3cccn3CCN2S(=O)(=O)c2ccc([N+](=O)[O-])cc2)cc1 (stereo not given),"inconclusive [inhibitor, single point]"
12,COc1ncnc2c1ncn2CCCN(C)CCc1ccccn1,inactive
13,Cc1ccc(S(=O)(=O)NCCC(=O)N2CCC(C)CC2)cc1,inactive
14,CC(=O)Nc1ccc(NC(=O)CSc2nc(N)c(NC(=O)c3ccco3)c(=O)[nH]2)cc1,"inconclusive [inhibitor, single point]"
15,O=C(O)c1ccc(CN2C(=O)c3ccccc3S2(=O)=O)cc1,inactive
16,O=C(Nc1ccc(F)cc1)c1nc[nH]c1C(=O)Nc1ccccc1[N+](=O)[O-],active: 1.3 µM
17,Clc1cccc(CNc2ncnc3nc[nH]c23)c1,"inconclusive [inhibitor, partial curve, poor fit]"
18,CCN1CCN(Cc2c(O)ccc3cc(-c4ccc(OC)cc4)c(=O)oc23)CC1,"inconclusive [inhibitor, single point]"
19,CCN(CC)CC(O)CN1c2ccccc2Sc2ccccc21 (stereo not given),"inconclusive [inhibitor, single point]"
20,O=C(Nc1ccc(Cl)c(Cl)c1)c1csc(-c2ccccc2)n1,"inconclusive [inhibitor, single point]"
21,COc1ccc(C(=O)N2CCN(c3nc4cc(C)cc(C)c4cc3C#N)CC2)cc1,active: 18.4 µM
22,COc1ccc2[nH]c3c(c2c1)CCN1C(=O)C(CC(=O)NC(C)(C)C)C[C@H](C(=O)N(C(C)C)C(C)C)[C@@]31C (stereo not given in full),"inconclusive [inhibitor, single point]"
